# The campaign covered roughly 410,000 compounds. About 260 (0.063%) were called active. This list was built around the results that the source calls inconclusive (neither active nor inactive); the mix of calls is not that of the screen. The call rests on the fitted dose curve; in most records, active means well fitted activation curve with a large enough effect; inconclusive means small, poorly fitted or top-dose-only effect; inactive means no such curve, though single readings can be large or run the other way. Potencies of inconclusive entries are left out as doubtful fits.
# Assay: qHTS for compounds that reverse cellular toxicity of Amyloid beta (A-beta) peptide in yeast: Primary Screen; further: nearly all actives have a fitted effect of over 55% in size
# Conditions: yeast expressing A-beta42, growth rescue, OD600, 48 h; growth rescue: at 46.1 µM (top of the series), 0% DMSO, 100% iron-clioquinol control
# Source text: The A-beta peptide is produced by the processing of the amyloid precursor protein (APP) by two proteases, beta and gamma secretases. […] A-beta42 is regarded as the most amyloidogenic form due to its hydrophobicity; however, precisely how A-beta42 induces neurotoxicity is unclear. To understand further this biology and its potential therapeutic implications for human neurodegenerative disease, a quantitative high-throughput screen for compounds that reverse the cellular toxicity of the A-beta peptide was developed. A yeast based screen was used because it recapitulates the salient feature of protein mis-folding disorder accurately. This cell-based phenotypic screen provides a significant, unbiased advantage by letting the compounds and models inform us which proteins or pathways are most relevant. The ideal chemical candidates would therefore have activity in both our primary yeast and secondary neuronal toxicity assays, as well as in mouse models. They will be valuable tools for dissecting diverse protein homeostasis pathologies and could potentially become the focus for future pre-clinical development. For this luminescence assay, inhibition of A-beta rescues the toxic effect in the yeast cell, resulting in increase of signals and the desired phenotype of "Activator". This screen is run against the Molecular Libraries Small Molecule Repository (MLSMR) and the NCGC Sytravon Library Collection.
# NIH Chemical Genomics Center [NCGC]
# NIH Molecular Libraries Probe Centers Network [MLPCN]
# Assay Submitter (PI): Susan Lindquist, Whitehead Institute, Massachusetts Institute of Technology
# [1] Vassar R,et al (1999). Beta-secretase cleavage of Alzheimer's amyloid precursor protein by the transmembrane aspartic protease BACE. Science. 286: 735-741.
# [2] Yan R, et al (1999). Membrane-anchored aspartyl protease with Alzheimer's disease beta-secretase activity. Nature. 402: 533-536.
# Two and a half microliter / well of yeast growth medium were dispensed in a 1536 assay plate. Compounds were pinned using the Kalypsys robotic system followed by addition of 2.5 uL / well yeast solution. The assay plates were incubated at 30 C. After 48 hr, the absorbance signal at 600 nm was obtained using the PerkinElmer ViewLux plate reader to assess yeast growth. The data was normalized to the positive control of an equimolar mixture of ferric chloride (FeCl3) and clioquinol and to the negative control DMSO.
# Potency means the concentration at half of the fitted maximal effect; tags describe the fitted curve by direction and shape.
row,SMILES,Potency
1,O=C(CSc1nc2ccccc2s1)N/N=C/c1cc([N+](=O)[O-])ccc1O,"inconclusive [activator, single point]"
2,O=C(N/N=C/c1ccccc1O)C1SCCCS1,"inconclusive [activator, partial curve]"
3,CCN(C(=O)CSc1nc2ccccc2n1CC(=O)Nc1ccccc1C)c1ccccc1,inactive
4,CSc1ccc(/C=C/C(=O)OCC(=O)NC(C)C)cc1,inactive
5,O=S(=O)(NC(=NC1CCCCC1)c1ccccc1F)c1ccccc1,inactive
6,CC(C)Cn1nc(NC(=O)c2ccco2)c2cc3ccccc3nc21,"inconclusive [activator, single point]"
7,COc1ccc(C2NC(c3ccc(OC)cc3)C([N+](=O)[O-])C(C)(C)C2[N+](=O)[O-])cc1 (centres undefined),"inconclusive [activator, full curve]"
8,N#C/C(C(=S)Nc1ccccc1)=C1/NN=C(N2CCOCC2)N1c1ccccc1,"inconclusive [activator, full curve]"
9,C=C(C)CN1C(=O)C(O)(CC(=O)c2ccc3c(c2)OCCO3)c2ccccc21 (centres undefined),"inconclusive [activator, single point]"
10,Cc1cccc(NC(=S)NCc2ccc3c(c2)OCO3)c1C,"inconclusive [activator, partial curve, poor fit]"
11,NS(=O)(=O)c1cccc(NC(=O)COC(=O)c2ccc(S(=O)(=O)N3CCOCC3)cc2)c1,"inconclusive [activator, single point]"
12,Cc1cccc(NC(=S)NCc2ccccc2Cl)c1C,"inconclusive [activator, single point]"
13,COc1ccccc1-c1oc2ccccc2c1C#CC(C)(C)O,inactive
14,COC(=O)c1ccc(NC(=O)CSc2nnc(Cc3cccn3C)n2-c2ccc(F)cc2)cc1,"inconclusive [activator, single point]"
15,CCCN1CCN(CCCNC(=O)c2ccc3c(c2)sc2nc(-c4ccc(C)cc4)cn23)CC1,inactive
16,CC(C)(C)C(=O)NC(=S)NNC(=O)C(c1ccccc1)c1ccccc1,"inconclusive [activator, partial curve, poor fit]"
17,CCn1c(=Nc2ccc(N3CCOCC3)cc2)ccc2ccccc21,"inconclusive [activator, partial curve, poor fit]"
18,S=c1nc(-c2ccccc2)[nH]c2ccc(Br)cc12,"inconclusive [activator, full curve, poor fit]"
19,Cc1cc(C)cc(NC(=O)COC(=O)c2ccc3c(c2)OCCO3)c1,inactive
20,C=CCNC(=S)N/N=C/c1ccc(C(C)(C)C)cc1,active: 7.94 µM
21,Cc1ccc(N=Nc2c(N)nn3c(C)cc(C)nc23)cc1,"inconclusive [activator, single point]"
22,Cc1ccc(O)c(-c2cc(C(F)(F)F)[nH]n2)c1,"inconclusive [activator, partial curve, poor fit]"
23,Cc1cccc[n+]1CCCCCCCCCC[n+]1ccccc1C,inactive

row,SMILES,Potency
1,S=c1[nH]ccn1-c1ccc(Cl)cc1,"inconclusive [activator, single point]"
2,CC(C)(C)c1ccc(S(=O)(=O)Nc2ccc(C(O)(C(F)(F)F)C(F)(F)F)cc2)cc1,"inconclusive [activator, partial curve, poor fit]"
3,CCN1CCCC1CN(Cc1cc2cc(C)ccc2[nH]c1=O)C(=O)Nc1ccccc1OC (centres undefined),inactive
4,C=CCn1c(O)c(N=NC(=S)Nc2ccccc2F)c2ccccc21,"inconclusive [activator, single point]"
5,CCN1CCN(C(=O)Cn2c(-c3cccs3)cc3ccccc32)CC1,"inconclusive [activator, partial curve]"
6,C(=N\N(Cc1ccccc1)c1ccccc1)/c1cccnc1,"inconclusive [activator, single point]"
7,CC(C)Cn1c(C23CC4CC(CC(C4)C2)C3)n[nH]c1=S,"inconclusive [activator, full curve, poor fit]"
8,COc1ccc(OC)c(-c2csc(NC(=O)C3CSC4(C)CCC(=O)N34)n2)c1 (centres undefined),"inconclusive [activator, partial curve, poor fit]"
9,Cc1ccc(NC(=S)N2CCC(C(=O)c3ccc(F)cc3)CC2)cc1C,"inconclusive [activator, single point]"
10,CCNc1cc(S(=O)(=O)C(F)(F)F)ccc1N,"inconclusive [activator, full curve]"
11,Clc1ccc(OCc2nc3ccccc3n2Cc2ccccc2)c(Cl)c1,"inconclusive [activator, partial curve, poor fit]"
12,CCC1CCc2sc(C(=O)NCC(c3ccc(OC)cc3)N3CCCC3)cc2C1 (centres undefined),inactive
13,COC(=O)CSC(=S)N1C(C)CCCC1C (centres undefined),"inconclusive [activator, partial curve, poor fit]"
14,COc1ccc(-n2c(Cc3cccn3C)nnc2SCC(=O)Nc2cccc(Cl)c2)cc1,"inconclusive [activator, partial curve, poor fit]"
15,Cc1c(Cl)cccc1-n1ncc(C(=O)NCc2cccs2)c1C1CCN(C(=O)OC(C)(C)C)CC1,"inconclusive [activator, partial curve]"
16,COc1ccc(Br)cc1/C=N/N1C(=O)CSC1=S,"inconclusive [activator, single point]"
17,Cc1cc(C)cc(NC(=O)COC(=O)CC2CCCC2)c1,"inconclusive [activator, full curve, poor fit]"
18,Cc1ncc([N+](=O)[O-])n1S(=O)(=O)c1cc(Br)ccc1Br,"inconclusive [activator, single point]"
19,O=C(Nc1ccccc1)c1nc2ccccc2s1,inactive
20,O=C(NCc1ccccc1)c1nc2ccccc2s1,inactive
21,Cc1ccccc1CN1CCc2c(OCC(=O)N3CCCc4ccccc43)cccc2C1=O,inactive
22,Cc1cccc(NC(=S)NNC(=S)NC2CCCCC2)c1C,"inconclusive [activator, full curve]"
23,Cc1ccc(NC(=O)CCC(=O)OCCCC(F)(F)C(F)(F)F)cc1,"inconclusive [activator, partial curve, poor fit]"

row,SMILES,Potency
1,COc1cc(Cn2c(=O)sc3ccccc32)ccc1OCCC(C)C,"inconclusive [activator, partial curve]"
2,Nc1ccc2c(c1)Nc1ccccc1CC2,"inconclusive [activator, partial curve, poor fit]"
3,Cc1cc(C)nc(N2N=C(c3ccccc3)CC2=O)n1,"inconclusive [activator, full curve]"
4,O=C(NNC(=O)C12CC3CC(CC(C3)C1)C2)c1ccccc1O,"inconclusive [activator, single point]"
5,CC(C)(C(=O)N1CCC1(C)C(=O)NS(=O)(=O)c1cccc(C#N)c1)c1ccccc1 (centres undefined),inactive
6,NC(=O)c1cc([N+](=O)[O-])ccc1NCc1cccc2ccccc12,inactive
7,Nc1c(NCCc2ccccc2)c2ccccc2oc1=O,"inconclusive [activator, partial curve, poor fit]"
8,O=C(Nc1ccccc1)c1nn(-c2cccc(C(F)(F)F)c2)ccc1=O,"inconclusive [activator, full curve]"
9,COc1ccc(OC)c2sc(NNC(=O)C3COc4ccccc4O3)nc12 (centres undefined),"inconclusive [activator, partial curve]"
10,COc1ccccc1-c1nc(C#N)c(N2CCN(c3ccccc3)CC2)o1,inactive
11,COc1ccccc1-c1cc(C(F)(F)F)nc(S(=O)(=O)CCCC(=O)Nc2cc(Br)ccc2O)n1,"inconclusive [activator, partial curve]"
12,CC(NC(=O)c1ccc(F)cc1)C(c1cccs1)N1CCN(C)CC1 (centres undefined),"inconclusive [activator, full curve]"
13,CC(NS(=O)(=O)c1ccc([N+](=O)[O-])cc1)C(c1cccs1)N1CCOCC1 (centres undefined),"inconclusive [activator, single point]"
14,O=C(c1ccco1)c1cn(CCOc2ccc(Cl)cc2)c2ccccc12,inactive
15,Cc1cccc(C(=O)NCC(c2ccc3c(c2)OCO3)N2CCOCC2)c1 (centres undefined),inactive
16,COc1ccc(NC(=O)c2cnc(SCC(=O)Nc3nc4ccc(C)cc4s3)n(C)c2=O)cc1,inactive
17,CC(Sc1nnc(N)s1)C(=O)NC1CCCCC1C (centres undefined),"inconclusive [activator, partial curve, poor fit]"
18,Oc1c(Cl)cc(Cl)cc1/C=N/NC(=S)NC1CC2C=CC1C2 (centres undefined),"inconclusive [activator, partial curve, poor fit]"
19,COc1cc(-c2cc(C(=O)OCC(=O)NC3CC3)c3ccccc3n2)cc(OC)c1OC,"inconclusive [activator, single point]"
20,Cc1ccc(F)cc1NCC(=O)Nc1ccc(Br)cc1,"inconclusive [activator, single point]"
21,Cc1cccc(OCC(=O)NCC(c2cccs2)N2CCOCC2)c1 (centres undefined),inactive
22,Cc1ccc(S(=O)(=O)N/N=C/c2cccc3nccnc23)cc1,"inconclusive [activator, partial curve, poor fit]"
23,NNC(=S)Nc1ccc(OC(F)(F)F)cc1,active: 11.2 µM
